Measurements reported in article PMC4336329 (PLoS ONE, 2015).
The whole screen tested about 310,000 compounds, of which about 14,000 (4.5%) showed an effect of 50% or more. Effects have a minus sign here. Some of the results follow.

target: human ether-à-go-go-related gene (hERG) potassium channel (human, UniProt Q12809); assay: primary screen, population patch clamp on CHO cells stably expressing hERG
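Also: peak tail current of the secondary pulse compared with the same well before compound.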

human ether-à-go-go-related gene (hERG) potassium channel, sequence (Q12809 whole entry, looked up): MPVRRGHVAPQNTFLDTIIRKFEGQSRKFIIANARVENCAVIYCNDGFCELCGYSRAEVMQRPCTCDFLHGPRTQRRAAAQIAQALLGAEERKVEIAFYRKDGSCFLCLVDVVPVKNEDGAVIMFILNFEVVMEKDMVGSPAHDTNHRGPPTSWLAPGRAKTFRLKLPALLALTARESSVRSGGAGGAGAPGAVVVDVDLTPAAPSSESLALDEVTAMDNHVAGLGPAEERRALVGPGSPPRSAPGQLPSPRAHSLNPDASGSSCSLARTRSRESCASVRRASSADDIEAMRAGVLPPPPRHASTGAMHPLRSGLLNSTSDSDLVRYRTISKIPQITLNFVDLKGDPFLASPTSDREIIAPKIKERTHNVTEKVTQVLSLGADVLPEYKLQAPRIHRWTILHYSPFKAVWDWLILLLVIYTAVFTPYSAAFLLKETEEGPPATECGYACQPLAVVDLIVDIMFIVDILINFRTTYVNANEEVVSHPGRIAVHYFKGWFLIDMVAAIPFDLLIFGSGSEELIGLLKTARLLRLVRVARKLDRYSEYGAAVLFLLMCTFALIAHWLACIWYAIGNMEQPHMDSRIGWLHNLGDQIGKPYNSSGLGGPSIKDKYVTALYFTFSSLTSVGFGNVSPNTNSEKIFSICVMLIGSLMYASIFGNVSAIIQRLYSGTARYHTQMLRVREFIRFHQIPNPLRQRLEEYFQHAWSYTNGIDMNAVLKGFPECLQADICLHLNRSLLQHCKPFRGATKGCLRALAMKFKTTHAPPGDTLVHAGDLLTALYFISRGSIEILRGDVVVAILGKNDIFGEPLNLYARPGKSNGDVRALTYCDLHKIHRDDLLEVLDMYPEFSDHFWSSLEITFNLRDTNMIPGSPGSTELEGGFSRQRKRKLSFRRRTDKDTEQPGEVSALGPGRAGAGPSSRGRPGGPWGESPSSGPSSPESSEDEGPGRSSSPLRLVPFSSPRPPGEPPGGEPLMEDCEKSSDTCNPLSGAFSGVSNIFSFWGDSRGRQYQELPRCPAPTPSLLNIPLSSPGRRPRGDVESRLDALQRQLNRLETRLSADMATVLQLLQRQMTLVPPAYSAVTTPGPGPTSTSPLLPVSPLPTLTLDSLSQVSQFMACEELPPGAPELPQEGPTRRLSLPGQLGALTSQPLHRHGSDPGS

SMILES	hERG current change (%, negative = inhibition) at 10uM
CCc1ccc(CN(C)CC(=O)Nc2sccc2C#N)cc1	-16.4%
Cc1ccc(-c2nc(CS(=O)CC(=O)N3CCC4(CC3)OCCO4)c(C)o2)cc1 (stereo not shown)	-4.68%
CCOc1ccc(/C=N/N2C(C)CCCC2C)cc1OC (stereo not shown)	-3.11%
Cc1ccc(-c2nnn(CC(=O)N(CCO)C(C(=O)NC3CCCCC3)c3ccncc3)n2)o1 (stereo not shown)	13.9%
CCOc1ccc(C(=O)OCCN(CC)CC)cc1.Cl	-44.8%
O=C(COC(=O)c1ccc(Br)o1)NCc1cccs1	-4.11%
CCC1(c2ccc(F)cc2)NC(=O)N(CC(=O)NCc2ccc(F)cc2)C1=O (stereo not shown)	-14%
CN(c1c[nH]c(=O)[nH]c1=O)C1CCCCC1	36.5%
CNS(=O)(=O)c1ccc(NC(=O)c2cncc(Br)c2)cc1	12.1%
c1ccc(-c2nc(-c3ccco3)n3ccccc23)cc1	10.3%
CS(=O)(=O)N1CCN(C(=O)CCC2CCCC2)CC1	14.1%
O=C(CN1C(=O)/C(=C2\SC(=S)N(CCS(=O)(=O)O)C2=O)c2ccccc21)Nc1cccc(Br)c1	-73.1%
COC(=O)c1ccc(NC(=O)Nc2ccccc2F)cc1	17%
O=[N+]([O-])c1cccc(N/N=C/c2cccc(O)c2O)c1	16.7%
C=CCNC(=O)CC1Nc2c3ccccc3nc(=S)n2C1=O (stereo not shown)	14.7%
NC(=O)CC(NC(=O)c1ccc(Br)cc1)c1ccc(NCc2ccc(F)cc2)c([N+](=O)[O-])c1 (stereo not shown)	-1.49%
COCC(=O)NCCc1nc2ccccc2[nH]1	2.06%
O=C(Nc1ccc(N2CCOCC2)c(Cl)c1)c1ccc(S(=O)(=O)N2CCOCC2)cc1	-25.7%
Fc1ccc(NC(=S)N2CCN(c3cccc(C(F)(F)F)c3)CC2)cc1	13.7%
CC(C)(C)OC(=O)NNC(=O)c1cccs1	4.42%
Cc1cc(C)nc(SCC(=O)Nc2nonc2N)n1	23.4%
CCOC(=O)Cc1nc(-c2ccc(Cl)cc2)n[nH]1	16.2%

SMILES	hERG current change (%, negative = inhibition) at 10uM
COc1ccccc1N1CCN(C(=O)c2sc3nc(C)nc(N4CCN(c5ccccn5)CC4)c3c2C)CC1	-2.2%
COc1ccc(S(=O)(=O)N2CCCC2CNC(=O)C(=O)NCc2ccco2)cc1 (stereo not shown)	-3.76%
COc1cc(CN2CCCC(C(=O)c3sccc3C)C2)cc(Cl)c1O (stereo not shown)	-53.8%
COC(=O)[C@@]1(Cc2ccc(F)cc2)[C@H]2c3cc(C(=O)N(C)C)n(Cc4ccccn4)c3C[C@H]2CN1C(=O)c1ccccc1	-53.4%
O=C(Nc1cccc(F)c1)NC1CCCCC1	7.8%
CCc1ccccc1NC(=O)CNC(=O)c1cc(C2CC2)nn1-c1ccccc1	-28.8%
C=CCNCCCCOc1ccccc1.O=C(O)C(=O)O	0.6%
CN(C(=O)C1CCOC1)c1nnc(-c2ccccn2)s1 (stereo not shown)	-3.49%
Cc1ccc(Cl)cc1N1CCN(CC(O)COC(C)C)CC1.Cl (stereo not shown)	-63.7%
CCOC(=O)c1[nH]c(C)c(C(=O)OCC(=O)NC(=O)NC(C)(C)C)c1C	21.3%
CC(C)Cc1cc(C(C)(C)C)ccc1OC(=S)N(C)C	10.2%
CCCCc1c(O)nc2sccn2c1=O	-2%
CN1CCN(Cc2cn(C)nc2-c2ccccc2F)CC1c1ccccc1 (stereo not shown)	3.76%
O=P1(NCCCl)OCCCN1CCCl (stereo not shown)	8.5%
N#Cc1ccc(C2=NC(C(F)(F)F)(C(F)(F)F)c3c(n(Cc4ccco4)c(=O)[nH]c3=O)N2)cc1	3.82%
COc1ccc(CNC(=O)COC(=O)c2ccc3c(c2)OCCO3)cc1	14.8%
O=C(Nc1cccc2c1CCCC2)c1ccco1	-7.45%
CC(C(=O)NCCc1ccc(F)cc1)N1CCN(Cc2ccccc2)CC1 (stereo not shown)	-5.88%
O=[N+]([O-])c1ccc2[nH]c3c(c2c1)CCCC3O (stereo not shown)	5.53%
C[n+]1c(-c2ccccc2)cc(CCCCc2cc(-c3ccccc3)[n+](C)c(-c3ccccc3)c2)cc1-c1ccccc1.[O-][Cl+3]([O-])([O-])[O-]	-30.6%
O=C(NCCN1CCOCC1)C1CCC(=O)N1Cc1ccccc1Cl (stereo not shown)	1.21%
CCOC(=O)N[C@H](Cc1c[nH]c2ccccc12)C(=O)NC1CC1	3.42%

SMILES	hERG current change (%, negative = inhibition) at 10uM
Cn1[nH]c(-c2ccccc2)c(/C=N/O)c1=O	-15.1%
O=S(=O)(c1ccccc1)c1nc(-c2ccco2)oc1NCc1cccnc1	-20.1%
CC(C)(O)c1[nH]c2cc(F)ccc2c1C(C)(C)O	7.32%
CC(=O)NC(CC(=O)OCC(=O)N1CCN(S(=O)(=O)c2ccc(Cl)cc2)CC1)c1ccccc1 (stereo not shown)	-9.51%
CCOC(=O)c1c(C)[nH]c(C)c1C(=O)COC(=O)c1cccc(C)c1O	-2.67%
CCOc1ccccc1C(=O)Nc1ccc2c(c1)C(=O)NC2=O	18.4%
CN(CC(=O)Nc1ccccc1Br)c1ncnc2sccc12	-0.69%
Cc1nc(SCC(=O)Nc2cc(S(=O)(=O)N3CCOCC3)ccc2Cl)nc(C)c1C	-48.1%
Cc1c(CN(C)C)c2c(n1C)C(=O)c1ccc(Br)cc1-2.Cl	-37.3%
O=[N+]([O-])c1cc(O)c(O)c([N+](=O)[O-])c1	-6.65%
CCOC(=O)C1(CCOc2ccccc2)CCN(Cc2ccc(CO)o2)CC1	-73.8%
CCOC(=S)SCC(=O)N1CCc2ccccc2C1C1C(=O)CC(C)(C)CC1=O (stereo not shown)	4.98%
CCC(Cc1ccccc1)NCc1c(C(=O)O)c(C)n(Cc2ccccc2)c1C (stereo not shown)	30.4%
CC1CCCCC1NC(=O)CNC(=O)c1cccs1 (stereo not shown)	4.7%
Cc1nn(CC(=O)NCC2CCCO2)c(=O)c2cc3ccccc3n12 (stereo not shown)	15.2%
CC(C)(C)C(=O)NC1CCN(CC(=O)Nc2ccc3c(c2)OCO3)CC1	15.8%
Cc1ccc(-n2[nH]c(C)c(C=Nc3ccc(S(=O)(=O)Nc4nccs4)cc3)c2=O)c(C)c1	-35%
CCOC(=O)C1CCN(/C=C2/C(=O)NC(=S)N(c3ccccc3F)C2=O)CC1	3.35%
O=C(O)C1CCN(C(=O)CSc2nc3cc(Cl)ccc3c(=O)n2Cc2ccccc2)CC1	2.54%
O=C(CSc1ccccn1)Nc1ccc2c(c1)CCC2	-3.64%
O=C(N/N=C\c1ccc(O)c([N+](=O)[O-])c1)C1COc2ccccc2O1 (stereo not shown)	-4.56%
COC(=O)CN1C(=S)N(c2ccc(OC)cc2)C(=O)/C1=C/c1ccc(OC)cc1	10.2%

SMILES	hERG current change (%, negative = inhibition) at 10uM
Cc1occc1C(=O)Nc1c(Cl)cccc1Cl	-1.63%
O=C(COc1ccccc1)Nc1cccc(-c2nc3cc4ccccc4cc3[nH]2)c1	-9.82%
COc1ccc(C(=O)N/N=C/C23CC[C@@H](O)CC2(O)CC[C@@H]2[C@@H]3CCC3(C)C(C4=CC(=O)OC4)CCC23O)cc1 (stereo partly shown)	0.942%
CCOc1ccc(/C=N/NC(=O)C2CC2)c(OCC)c1	2.21%
COc1ccc(-c2cc(C(=O)N/N=C(\C)c3ccco3)c3ccccc3n2)c(OC)c1	18%
CCCCC(=O)Nc1ccc(C(=O)Nc2ccc(S(=O)(=O)Nc3ccc(C)cc3)cc2)cc1	9.5%
Fc1ccc(NCc2nnc(SCc3nnc(-c4ccccc4)o3)n2Cc2ccccc2)cc1	-46%
CCN(CC(=O)Nc1cc(C)nn1-c1nc(C)cc(C)n1)Cc1ccccc1	-42.8%
CCn1cc(C(=O)Nc2sc(C)c(C)c2C(=O)OC)cn1	-12.6%
COc1ccc(CCN(C)C(=O)C2CCCN(Cc3ccc(OC)c(OC)c3)C2)cc1OC.O=C(O)C(=O)O (stereo not shown)	-3.31%
CC(C)CCNC(=O)COC(=O)c1cc(Br)c(Br)s1	13.7%
O=C(CN1CCN(c2cccc(Cl)c2)CC1)N1CCCC1	-8.34%
NC(=O)COc1c(-c2ccccc2)oc2ccccc2c1=O	-12.5%
Cc1occc1C(=O)NNC(=O)c1cccc(F)c1	15%
N#Cc1cc[n+](CC(=O)c2ccc(NC(=O)c3ccccc3)cc2)cc1.[Br-]	-14.6%
CCCCCCC(=O)N/N=C(\C)Cc1ccccc1	3.25%
O=C(c1c(F)cccc1F)N1CCCC(c2nc(-c3cccs3)no2)C1 (stereo not shown)	-20.9%
C[C@H]1C[C@H]2[C@@H]3CCC4=CC(=O)C=C[C@]4(C)[C@@]3(F)[C@@H](O)C[C@]2(C)[C@@]1(O)C(=O)CO	-1.56%
CN(c1ccccc1)S(=O)(=O)c1ccc(Cl)c(C(=O)OCC(=O)NC2CCS(=O)(=O)C2)c1 (stereo not shown)	-9.5%
Fc1ccc(-c2cnc3n2CCCCC3)cc1	-7.09%
C/C(=N\NC(=O)c1c[nH]c2ccccc12)c1ccco1	-0.529%
COc1ccccc1NC(=O)COc1ccc(Br)cc1CO	-4.58%
